Measured values as given in paper PMC12136788.
The other results are listed elsewhere or left out.

B1: chr2:232320318:232320319:-_ENSG00000115053_ENST00000322723|hu_hu|hu_hu_hu_mus_True|48_68 (ssRNA)
RNA: GGGAGUUCUACAGUCCGACGAUCACUAUUAAAGUCUACAAAACCAAACCCUUUGGAAGAACCAGUUUCCCGGUCAGUGACUAUUCUUGCCCGAACGGAGCCCUCAAAUGAUUCUUUUAAGGUCUCUUCAGUGGUAUCCUCAGACAACAGAGGAUUGAGCAUCA
B2: chr8:11702082:11702083:-_ENSG00000164733_ENST00000533455|hu_mus|motif|central (ssRNA)
RNA: GGGAGUUCUACAGUCCGACGAUCCUAUAAAACCAGUACAGCUCUUCAUACUUGGUUGAGGUACACAAAGCAUAAAAAUCCGGUUGAAAAAGCAUCGGCUGAGGACAGGACCAAGGAGAGCUGGCCACAUUACCAAUGUCGAUGCAACAGAGGAUUGAGCAUCA
B3: chr9:95013113:95013114:-_ENSG00000196305_ENST00000443024|hu_hu|hu_hu_hu_mus_False|8_68 (ssRNA)
RNA: GGGAGUUCUACAGUCCGACGAUCCUCAGUCAGAAAGGGCGUGUAAGGGGCCAUCAGUCUGCACAGAGAAAGCAGAACACUGAACAGUGUCUCCAGAGCCAUGACACAGUCUUCCACCCCACUCUCACCCUUUAAUCUCCUCCUCAACAGAGGAUUGAGCAUCA
B4: chr2:134423880:134423881:-_ENSMUSG00000034723_ENSMUST00000038228|mus_hu|FALSE|FALSE (ssRNA)
RNA: GGGAGUUCUACAGUCCGACGAUCCUAGCUGUGAAAGAUUUUUCAUGCACUGUGGUGCCUGAUGUUUCCUGCAAUUUGACAAAAAUAAAUACUUUACACAAGAAAAGGAUGCAAGGCUUCUACGUUACACUUUGGGGAUGCUCACAACAGAGGAUUGAGCAUCA
B5: chr7:35674789:35674790:-_ENSG00000122557_ENST00000396081|hu_hu|FALSE|FALSE (ssRNA)
RNA: GGGAGUUCUACAGUCCGACGAUCUCCAGCUUGGUGUAAAUAAACCAGUAGCAUGGCUCCCAUUACCAUGAUAAACCGACUAAAAGAAGAAUAGAAGUAUACAAUGCUAAGGAGAAUCGCAGCUCGUGAGAACGUGUACAUCCACAACAGAGGAUUGAGCAUCA
B6: chr17:45705486:45705487:-_ENSMUSG00000023944_ENSMUST00000024739|mus_hu|motif|central (ssRNA)
RNA: GGGAGUUCUACAGUCCGACGAUCAUUGGCUGUCCAGCCGUAGGUGCUGGUCACAAUGCAGCAAGGUGAAGACACAAGUCGGUUGGAGAUUGUCACCUUCUCAACCUUCUUAUCUAAGAUUUCUUUCAUGAGCUUGCAGAGGUUCAACAGAGGAUUGAGCAUCA

Molecular target: T1, UNK ZnF1-3 (human, UniProt Q9C0B0 31-174)
T1 sequence: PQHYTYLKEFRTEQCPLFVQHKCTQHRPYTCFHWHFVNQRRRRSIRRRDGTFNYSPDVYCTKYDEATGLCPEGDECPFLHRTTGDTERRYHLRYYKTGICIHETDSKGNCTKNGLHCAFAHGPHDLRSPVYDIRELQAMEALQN
Assay: nsRBNS (natural sequence RNA bind-n-seq); RBNS binding buffer (assumed for nsRBNS): 25 mM Tris pH 7.5, 150 mM KCl, 3 mM MgCl2, 0.01% Triton X-100, 500 ug/ml BSA, 20 U/ml SUPERase-In, 4 C; UNK is unkempt and MSI1 is Musashi-1; names of the RNAs are library labels; protein concentration not given here; high values mean tight binding

Binder | binding signal [enrichment R]
B1 | 0.476
B2 | 0.785
B3 | 1.26
B4 | 1.26
B5 | 1.35
B6 | 0.858
